Source: the supplement of paper PMC4967469
pIC50: −log10 of the molar value. A lower IC50 marks a more sensitive line; fits outside the tested doses are given as limits. AUC, from the same fit, is the share of area under the viability curve across the 256-fold dose range; it is 1 without any effect and falls as sensitivity rises. For some of these results: The top dose, if marked as inferred, comes from the curve model; the source does not state it.

Legend:
Test in all cases: Viability of human cancer cell lines after 72 h of drug (GDSC screen)
PD-173074 = compound: CCN(CC)CCCCNc1ncc2cc(-c3cc(OC)cc(OC)c3)c(NC(=O)NC(C)(C)C)nc2n1 [PD-173074]; settings: top dose 2 µM; top dose inferred
Experimental: (§1)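 Human cancer cell lines in 384-well plates, medium with 10% serum, drug for 72 h over a 256-fold dose range (nine 2-fold or five 4-fold steps up to the top dose). Adherent lines were fixed and stained with the nucleic acid dye Syto60, suspension lines read with resazurin; signal relative to control wells, capped at 0 and 100%. One two-parameter sigmoid per drug and line, fitted in a mixed model over all curves with the slope shared within a line.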

SB590885 = compound: CN(C)CCOc1ccc(-c2nc(-c3ccncc3)c(-c3ccc4c(c3)CC/C4=N\O)[nH]2)cc1 [SB590885]; settings: top dose 5 µM; top dose inferred
Experimental: as §1

Lapatinib = compound: CS(=O)(=O)CCNCc1ccc(-c2ccc3ncnc(Nc4ccc(OCc5cccc(F)c5)c(Cl)c4)c3c2)o1 [Lapatinib]; settings: top dose 2 µM
Experimental: as §1

TGX221 = compound: Cc1cc(C(C)Nc2ccccc2)c2nc(N3CCOCC3)cc(=O)n2c1 [TGX221]; settings: top dose 10 µM
Experimental: as §1

Row | Cell Line | AUC (PD-173074) | pIC50 (PD-173074) | AUC (SB590885) | pIC50 (SB590885) | AUC (Lapatinib) | pIC50 (Lapatinib) | AUC (TGX221) | pIC50 (TGX221)
1 | NAMALWA (Burkitt lymphoma, suspension) | 0.985 | < 5.70 | 0.979 | < 5.30 | 0.986 | < 5.70 | 0.987 | < 5.00
2 | NB1 (neuroblastoma, semi-adherent) | 0.983 | < 5.70 | 0.982 | < 5.30 | 0.972 | < 5.70 | 0.975 | < 5.00
3 | NB5 (neuroblastoma, adherent) | 0.986 | < 5.70 | 0.972 | < 5.30 | 0.92 | < 5.70 | 0.987 | < 5.00
4 | NB6 (neuroblastoma, adherent) | 0.984 | < 5.70 | 0.984 | < 5.30 | 0.982 | < 5.70 | 0.984 | < 5.00
5 | NB7 (neuroblastoma, adherent) | 0.986 | < 5.70 | 0.986 | < 5.30 | 0.966 | < 5.70 | 0.956 | < 5.00
6 | NB10 (neuroblastoma, adherent) | 0.968 | < 5.70 | 0.988 | < 5.30 | 0.986 | < 5.70 | 0.987 | < 5.00
7 | NB12 (neuroblastoma, adherent) | 0.979 | < 5.70 | 0.976 | < 5.30 | 0.967 | < 5.70 | 0.975 | < 5.00
8 | NB13 (neuroblastoma, adherent) | 0.99 | < 5.70 | 0.99 | < 5.30 | 0.99 | < 5.70 | 0.99 | < 5.00
9 | NB14 (neuroblastoma, adherent) | 0.989 | < 5.70 | 0.989 | < 5.30 | 0.989 | < 5.70 | 0.985 | < 5.00
10 | NB17 (neuroblastoma, adherent) | 0.982 | < 5.70 | 0.983 | < 5.30 | 0.974 | < 5.70 | 0.982 | < 5.00
11 | NB69 (neuroblastoma, adherent) | 0.959 | < 5.70 | 0.98 | < 5.30 | 0.985 | < 5.70 | 0.989 | < 5.00
12 | NB(TU)1-10 (neuroblastoma, adherent) | 0.964 | < 5.70 | 0.962 | < 5.30 | 0.991 | < 5.70 | 0.993 | < 5.00
13 | NB-4 (acute myeloid leukaemia, suspension) | 0.976 | < 5.70 | 0.953 | < 5.30 | 0.991 | < 5.70 | 0.955 | < 5.00
14 | NCI-H64 (small cell lung carcinoma, suspension) | 0.996 | < 5.70 | 0.996 | < 5.30 | 0.996 | < 5.70 | 0.996 | < 5.00
15 | NCI-H69 (small cell lung carcinoma, suspension) | 0.986 | < 5.70 | 0.986 | < 5.30 | 0.975 | < 5.70 | 0.965 | < 5.00
16 | NCI-H82 (small cell lung carcinoma, suspension) | 0.982 | < 5.70 | 0.979 | < 5.30 | 0.968 | < 5.70 | 0.985 | < 5.00
17 | NCI-H209 (small cell lung carcinoma, suspension) | 0.879 | < 5.70 | 0.981 | < 5.30 | 0.986 | < 5.70 | 0.976 | < 5.00
18 | NCI-H211 (small cell lung carcinoma, adherent) | 0.981 | < 5.70 | 0.972 | < 5.30 | 0.979 | < 5.70 | 0.974 | < 5.00
19 | NCI-H226 (lung squamous cell carcinoma, adherent) | 0.92 | < 5.70 | 0.986 | < 5.30 | 0.975 | < 5.70 | 0.986 | < 5.00

Row | Cell Line | AUC (PD-173074) | pIC50 (PD-173074) | AUC (SB590885) | pIC50 (SB590885) | AUC (Lapatinib) | pIC50 (Lapatinib) | AUC (TGX221) | pIC50 (TGX221)
20 | NCI-H322M (lung adenocarcinoma, suspension) | 0.938 | < 5.70 | 0.96 | < 5.30 | 0.921 | < 5.70 | 0.98 | < 5.00
21 | NCI-H345 (small cell lung carcinoma, suspension) | 0.99 | < 5.70 | 0.99 | < 5.30 | 0.99 | < 5.70 | 0.99 | < 5.00
22 | NCI-H510A (small cell lung carcinoma, semi-adherent) | 0.959 | < 5.70 | 0.987 | < 5.30 | 0.99 | < 5.70 | 0.99 | < 5.00
23 | NCI-H524 (small cell lung carcinoma, suspension) | 0.991 | < 5.70 | 0.986 | < 5.30 | 0.987 | < 5.70 | 0.982 | < 5.00
24 | NCI-H526 (small cell lung carcinoma, suspension) | 0.984 | < 5.70 | 0.96 | < 5.30 | 0.988 | < 5.70 | 0.989 | < 5.00
25 | NCI-H720 (lung carcinoid, suspension) | 0.992 | < 5.70 | 0.992 | < 5.30 | 0.992 | < 5.70 | 0.969 | < 5.00
26 | NCI-H747 (large intestine, adherent) | 0.982 | < 5.70 | 0.968 | < 5.30 | 0.906 | < 5.70 | 0.959 | < 5.00
27 | NCI-H847 (small cell lung carcinoma, adherent) | 0.991 | < 5.70 | 0.993 | < 5.30 | 0.993 | < 5.70 | 0.993 | < 5.00
28 | NCI-H1092 (small cell lung carcinoma, suspension) | 0.989 | < 5.70 | 0.99 | < 5.30 | 0.99 | < 5.70 | 0.99 | < 5.00
29 | NCI-H1155 (large cell lung carcinoma, suspension) | 0.993 | < 5.70 | 0.993 | < 5.30 | 0.993 | < 5.70 | 0.989 | < 5.00
30 | NCI-H1304 (small cell lung carcinoma, suspension) | 0.985 | < 5.70 | 0.987 | < 5.30 | 0.975 | < 5.70 | 0.964 | < 5.00
31 | NCI-H1355 (lung adenocarcinoma, adherent) | 0.887 | < 5.70 | 0.967 | < 5.30 | 0.934 | < 5.70 | 0.851 | < 5.00
32 | NCI-H1395 (lung adenocarcinoma, adherent) | 0.977 | < 5.70 | 0.982 | < 5.30 | 0.974 | < 5.70 | 0.952 | < 5.00
33 | NCI-H1436 (small cell lung carcinoma, suspension) | 0.955 | < 5.70 | 0.947 | < 5.30 | 0.982 | < 5.70 | 0.965 | < 5.00
34 | NCI-H1694 (small cell lung carcinoma, suspension) | 0.989 | < 5.70 | 0.989 | < 5.30 | 0.976 | < 5.70 | 0.985 | < 5.00
35 | NCI-H1770 (non-small cell lung carcinoma, suspension) | 0.991 | < 5.70 | 0.992 | < 5.30 | 0.987 | < 5.70 | 0.992 | < 5.00
36 | NCI-H1836 (small cell lung carcinoma, suspension) | 0.988 | < 5.70 | 0.988 | < 5.30 | 0.988 | < 5.70 | 0.985 | < 5.00
37 | NCI-H1838 (lung adenocarcinoma, adherent) | 0.982 | < 5.70 | 0.977 | < 5.30 | 0.976 | < 5.70 | 0.984 | < 5.00
38 | NCI-H1869 (lung squamous cell carcinoma, adherent) | 0.984 | < 5.70 | 0.985 | < 5.30 | 0.899 | < 5.70 | 0.928 | < 5.00

Row | Cell Line | AUC (PD-173074) | pIC50 (PD-173074) | AUC (SB590885) | pIC50 (SB590885) | AUC (Lapatinib) | pIC50 (Lapatinib) | AUC (TGX221) | pIC50 (TGX221)
39 | NCI-H2081 (small cell lung carcinoma, suspension) | 0.988 | < 5.70 | 0.988 | < 5.30 | 0.989 | < 5.70 | 0.989 | < 5.00
40 | NCI-H2135 (non-small cell lung carcinoma, adherent) | 0.991 | < 5.70 | 0.991 | < 5.30 | 0.991 | < 5.70 | 0.979 | < 5.00
41 | NCI-H2141 (small cell lung carcinoma, suspension) | 0.99 | < 5.70 | 0.991 | < 5.30 | 0.99 | < 5.70 | 0.99 | < 5.00
42 | NCI-H2227 (small cell lung carcinoma, semi-adherent) | 0.924 | < 5.70 | 0.986 | < 5.30 | 0.985 | < 5.70 | 0.983 | < 5.00
43 | NCI-SNU-1 (stomach, suspension) | 0.979 | < 5.70 | 0.986 | < 5.30 | 0.987 | < 5.70 | 0.958 | < 5.00
44 | NCI-SNU-5 (stomach, suspension) | 0.984 | < 5.70 | 0.985 | < 5.30 | 0.983 | < 5.70 | 0.989 | < 5.00
45 | NCI-SNU-16 (stomach, suspension) | 0.741 | 6.26 | 0.99 | < 5.30 | 0.987 | < 5.70 | 0.99 | < 5.00
46 | NEC8 (testis, adherent) | 0.706 | 6.37 | 0.962 | < 5.30 | 0.99 | < 5.70 | 0.979 | < 5.00
47 | NH-12 (neuroblastoma, adherent) | 0.98 | < 5.70 | 0.981 | < 5.30 | 0.984 | < 5.70 | 0.978 | < 5.00
48 | NKM-1 (acute myeloid leukaemia, suspension) | 0.965 | < 5.70 | 0.93 | < 5.30 | 0.975 | < 5.70 | 0.893 | < 5.00
49 | NMC-G1 (glioma, adherent) | 0.977 | < 5.70 | 0.972 | < 5.30 | 0.892 | < 5.70 | 0.887 | < 5.00
50 | NOMO-1 (acute myeloid leukaemia, suspension) | 0.891 | < 5.70 | 0.973 | < 5.30 | 0.982 | < 5.70 | 0.96 | < 5.00
51 | NOS-1 (osteosarcoma, adherent) | 0.921 | < 5.70 | 0.947 | < 5.30 | 0.954 | < 5.70 | 0.906 | < 5.00
52 | NU-DUL-1 (B-cell lymphoma, suspension) | 0.964 | < 5.70 | 0.977 | < 5.30 | 0.991 | < 5.70 | 0.894 | 5.11
53 | OCI-AML2 (acute myeloid leukaemia, suspension) | 0.995 | < 5.70 | 0.995 | < 5.30 | 0.995 | < 5.70 | 0.994 | < 5.00
54 | OCI-AML3 (acute myeloid leukaemia, suspension) | 0.914 | < 5.70 | 0.95 | < 5.30 | 0.991 | < 5.70 | 0.991 | < 5.00
55 | OCI-AML5 (acute myeloid leukaemia, suspension) | 0.988 | < 5.70 | 0.989 | < 5.30 | 0.987 | < 5.70 | 0.971 | < 5.00
56 | OCI-LY-19 (B-cell lymphoma, suspension) | 0.963 | < 5.70 | 0.981 | < 5.30 | 0.988 | < 5.70 | 0.983 | < 5.00
